Measurements reported in the supplement of paper PMC3334620.
In all, about 33,000 sequences were measured (“E-score (-0.5 to 0.5)”: median about -0.012, highest 2% from about 0.29 on). This is one part of the list.

Target: T1, Ybr033w (UniProt P38073)
T1 sequence: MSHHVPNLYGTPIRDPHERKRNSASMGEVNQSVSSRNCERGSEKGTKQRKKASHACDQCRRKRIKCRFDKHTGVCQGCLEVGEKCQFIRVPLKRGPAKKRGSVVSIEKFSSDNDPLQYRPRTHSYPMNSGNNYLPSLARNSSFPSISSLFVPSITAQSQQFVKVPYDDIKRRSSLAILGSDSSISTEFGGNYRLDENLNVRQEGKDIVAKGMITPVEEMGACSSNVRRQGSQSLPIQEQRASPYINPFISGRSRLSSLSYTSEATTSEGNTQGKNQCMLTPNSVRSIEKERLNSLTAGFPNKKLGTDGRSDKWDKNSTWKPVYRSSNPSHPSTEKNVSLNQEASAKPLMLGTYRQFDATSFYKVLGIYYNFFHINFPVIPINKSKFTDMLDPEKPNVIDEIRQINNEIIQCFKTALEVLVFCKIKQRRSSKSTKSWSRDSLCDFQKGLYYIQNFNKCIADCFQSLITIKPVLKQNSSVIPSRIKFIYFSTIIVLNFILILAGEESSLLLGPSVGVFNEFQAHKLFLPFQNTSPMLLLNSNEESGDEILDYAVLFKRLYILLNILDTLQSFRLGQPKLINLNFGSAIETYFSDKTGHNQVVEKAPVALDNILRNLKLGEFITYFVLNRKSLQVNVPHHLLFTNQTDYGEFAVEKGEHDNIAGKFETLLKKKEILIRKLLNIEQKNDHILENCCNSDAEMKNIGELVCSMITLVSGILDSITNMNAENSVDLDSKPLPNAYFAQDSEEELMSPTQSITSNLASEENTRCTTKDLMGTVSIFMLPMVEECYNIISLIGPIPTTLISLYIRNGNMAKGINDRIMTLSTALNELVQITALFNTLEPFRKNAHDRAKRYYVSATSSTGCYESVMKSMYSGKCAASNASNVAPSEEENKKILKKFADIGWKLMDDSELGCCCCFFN
Test: PBM E-score (8-mer binding enrichment) (E-score (-0.5 to 0.5)); higher = stronger / more preferred TF binding; most listed sequences are background and not binding sites
Settings: protein concentration: 200 nM; construct: GST-full length
Experimental: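 Universal 'all 10-mer' protein binding microarrays (Agilent AMADID 015681) probed with GST-tagged S. cerevisiae TFs (full-length or DBD) made by in vitro transcription/translation (PURExpress), about 100-200 nM. Bound TF was detected with fluorescent anti-GST. Each ungapped 8-mer (which stands for itself and its reverse complement) is scored by the PBM enrichment score (E-score), a modified Wilcoxon-Mann-Whitney statistic from -0.5 to +0.5, computed with the Universal PBM Analysis Suite. Scale: above 0.35 generally sequence-specific binding.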

Sequence	PBM E-score
AGACGGCG	-0.0817
CTCATGAC	-0.145
GAGGGATA	-0.182
CTAACCCC	-0.317
GGATCTAA	-0.0711
CGCTTACG	-0.0972
ATTACGTG	-0.0334
ACACTCCA	-0.0609
CTATCAGC	0.0765
CCATTGAA	0.151
GGATCGTA	-0.0932
GTCGGCTA	0.00209
ACAAAGCT	-0.0646
AATAGTAG	0.201
CGCAATTA	0.11
GTTTGATA	0.177
GTCATACA	0.108
AAAGTACG	0.0441
ATTATACC	0.179
CTCTAGTC	-0.138
TGACCCAA	0.00837
ATATTGCA	0.12

Sequence	PBM E-score
TAGCCAAA	0.199
AGTGCATG	-0.0746
ATATCGCC	0.0794
GCCTTCAA	-0.00041
ACTTTCAC	0.117
CAACCGTC	-0.105
AACACACT	0.121
CCTAGCGC	-0.137
AGTCGGAG	-0.133
GGCACGTA	-0.0905
ATACGGGG	-0.301
CTTTCGAC	-0.0312
GCAACGGC	-0.0796
AAACTGGC	-0.0686
ATCAGAAC	0.0471
CCTTGCGA	-0.0942
AGGGGGTA	-0.412
AGCTGGCA	-0.0445
ACGCATAA	0.0931
ACACATTA	0.0927
GCCACTAC	-0.138
AGCCCTGG	-0.252

Sequence	PBM E-score
GGCCCTCA	-0.283
GACATCTC	-0.0385
AAGAGGTA	0.0628
TATGCGAA	-0.0155
AACGCTTA	0.0224
CGTTGTAG	-0.0702
CTTAGGCA	-0.109
ACCGTCAC	-0.136
CATTTGGG	-0.0721
AAGTCTAT	-0.00931
CAAAGGAA	0.233
AGGTATCG	0.0829
CGCTATTA	0.143
CTGGGGTC	-0.157
CACCAATA	0.129
GAGCCGTA	0.133
GCAATTCA	0.119
CGCACGTC	0.00576
ACCTGCTC	-0.209
AGCTGGCG	-0.267
CCCCACTC	-0.227
TAGAGTGA	-0.167

Sequence	PBM E-score
CATGTAAC	0.00379
AGACTAAT	0.138
ACCAGATA	0.132
AGCAATTA	0.166
AATGACTG	0.0912
GGTGAACA	-0.24
AACTGAGG	-0.0282
ACGCAATC	-0.0299
ACGTTCCA	0.0552
AACTAGGT	0.175
CCTGGACG	-0.331
AAATCTCT	0.152
GTAACTAC	0.16
CGACAGAC	-0.125
CGGAGGCA	0.038
ATTCCGAC	0.157
AGGTACAA	-0.028
CGAAGCCA	-0.107
AACCACAA	0.151
GCGCCTTA	0.0244
